Patent US11192921B2 (priority 2017, dated 2021)
Read-outs that look alike come from different tables or passages of the source. No end group written: not given here.

Test system: Male ddY mice
Conditions: for influence on hyperalgesia: pain-related scores compared with the model group: mouse, in vivo; for Hyperalgesia (pain-related score): coarse filaments; for Allodynia (pain-related score): fine filaments; for influence on allodynia: pain-related scores compared with the model group: P<0.05
Description: Male ddY mice (7 weeks old) each weighing 20-25 g were used.
A filament mechanical pain threshold detector; fine filaments (equivalent to 0.0688 g of strength); coarse filaments (equivalent to 1.4798 g of strength); paclitaxel; polypeptides I, I I, III; loxoprofen; normal saline.
Mice were fed in an animal room at the temperature of (22±1)° C. and the relative humidity of 55%±10% for 1 week and then used for tests. Thirty-six mice were divided into model group (only paclitaxel was administrated), blank control group (no paclitaxel was administrated), loxoprofen group, polypeptide I group, polypeptide II group and polypeptide III group. In the loxoprofen group and the polypeptide groups, the corresponding drugs were given respectively 3 days before the administration of paclitaxel, for a total of 7 days. There were 6 mice in each group.
Preparation of a model for paclitaxel-induced pain: Mice were intraperitoneally injected with paclitaxel at a dose of 10 mg/kg for modeling.
Behavioral test of pain in mice: The mice were placed on a metal net divided into three compartments and stood for 15 min, and the reaction of mechanical stimulation on the metatarsal part of hind limbs was measured. Allodynia was evaluated with fine filaments first, and then the degree of hyperalgesia was evaluated with coarse filaments. Stimulus responses was performed 5 times for a total of 10 points. Evaluation criteria (0 point: rapid foot lifting action; 2 points: vigorous foot flick or foot licking. The measurement time was before paclitaxel administration and 24, 48, 72 and 96 h after paclitaxel administration).
The measurement data was expressed by M±SD, and T test was adopted for the differences between groups.

[1] = Before administration of paclitaxel

Row | Molecule | influence on hyperalgesia: pain-related scores compared with the model group | Hyperalgesia (pain-related score) (24 h after paclitaxel 10 mg/kg) | Allodynia (pain-related score) (24 h after paclitaxel 10 mg/kg) | Hyperalgesia (pain-related score) (48 h after paclitaxel 10 mg/kg) | Allodynia (pain-related score) (48 h after paclitaxel 10 mg/kg) | Hyperalgesia (pain-related score) (72 h after paclitaxel 10 mg/kg) | Allodynia (pain-related score) (72 h after paclitaxel 10 mg/kg) | Hyperalgesia (pain-related score) (96 h after paclitaxel 10 mg/kg) | Allodynia (pain-related score) (96 h after paclitaxel 10 mg/kg) | Hyperalgesia (pain-related score) [1] | Allodynia (pain-related score) [1] | influence on allodynia: pain-related scores compared with the model group
1 | CC(C(=O)O)c1ccc(CC2CCCC2=O)cc1 (stereo not shown) [Loxoprofen, loxoprofen, reference compound] | no significant difference | – | – | – | – | – | – | – | – | – | – | –
2 | GSCSTPPSAVLYC (cysteine pairing not given here) [Polypeptide II] | no significant difference | 5.2 ± 0.3 | 1.5 ± 0.6 | 3.7 ± 0.4 | 1.0 ± 0.4 | 2.3 ± 0.4 | 0.6 ± 0.4 | 2.3 ± 0.6 | 0.6 ± 0.4 | 2.4 ± 0.2 | 0.6 ± 0.2 | significantly lower than those of the model group
3 | Gly-Ser-Cys-Ser-Thr-Pro-Pro-d{Cys}-Val-Leu-Tyr-Ser [Polypeptide I] | no significant difference | 5.1 ± 0.4 | 1.4 ± 0.2 | 3.6 ± 0.3 | 0.9 ± 0.3 | 2.3 ± 0.2 | 0.6 ± 0.2 | 2.3 ± 0.2 | 0.6 ± 0.2 | 2.2 ± 0.6 | 0.5 ± 0.1 | significantly lower than those of the model group
4 | KCSTPPDAVLYC (cysteine pairing not given here) [Polypeptide III] | no significant difference | 5.3 ± 0.1 | 1.5 ± 0.4 | 3.7 ± 0.4 | 1.1 ± 0.1 | 2.3 ± 0.2 | 0.6 ± 0.4 | 2.3 ± 0.5 | 0.6 ± 0.3 | 2.3 ± 0.8 | 0.6 ± 0.2 | significantly lower than those of the model group
